Laboratory results reported in PubChem BioAssay AID1645882 (National Center for Advancing Translational Sciences (NCATS), 2021).
Screen size: about 16,000 compounds; about 120 (0.75%) were called active. Another 4% or so got no clear call; they are omitted. The call rests on the fitted dose curve; in most records, active means well fitted inhibition curve with a large enough effect; inconclusive means small, poorly fitted or top-dose-only effect; inactive means no such curve, though single readings can be large or run the other way. The list shows a part of the results.

target: Rap guanine nucleotide exchange factor 3 (Homo sapiens) (UniProt O95398); assay: Validation qHTS for antagonist of cAMP-regulated guanine nucleotide exchange factor 3 (EPAC1); settings: EPAC1 Rap1B-BODIPY-GDP exchange, fluorescence; series mostly up to 150 µM; activity change, negative = inhibition: at the top concentration;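 further: plate controls were DMSO for no effect and ATA control for full effect; nearly all actives have a fitted effect of over 75% in size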
How it was run: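 EPAC1 (100 nM) mixed with 250 nM RAP1B-BODIPY-GDP and 50 uM GDP; compounds in concentration series, 5 min at room temperature. Fluorescence (ex 480/em 540 nm) read every 5 min for 30 min; normalized to ATA control and DMSO.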

UniProt O95398, sequence (O95398 whole entry, looked up): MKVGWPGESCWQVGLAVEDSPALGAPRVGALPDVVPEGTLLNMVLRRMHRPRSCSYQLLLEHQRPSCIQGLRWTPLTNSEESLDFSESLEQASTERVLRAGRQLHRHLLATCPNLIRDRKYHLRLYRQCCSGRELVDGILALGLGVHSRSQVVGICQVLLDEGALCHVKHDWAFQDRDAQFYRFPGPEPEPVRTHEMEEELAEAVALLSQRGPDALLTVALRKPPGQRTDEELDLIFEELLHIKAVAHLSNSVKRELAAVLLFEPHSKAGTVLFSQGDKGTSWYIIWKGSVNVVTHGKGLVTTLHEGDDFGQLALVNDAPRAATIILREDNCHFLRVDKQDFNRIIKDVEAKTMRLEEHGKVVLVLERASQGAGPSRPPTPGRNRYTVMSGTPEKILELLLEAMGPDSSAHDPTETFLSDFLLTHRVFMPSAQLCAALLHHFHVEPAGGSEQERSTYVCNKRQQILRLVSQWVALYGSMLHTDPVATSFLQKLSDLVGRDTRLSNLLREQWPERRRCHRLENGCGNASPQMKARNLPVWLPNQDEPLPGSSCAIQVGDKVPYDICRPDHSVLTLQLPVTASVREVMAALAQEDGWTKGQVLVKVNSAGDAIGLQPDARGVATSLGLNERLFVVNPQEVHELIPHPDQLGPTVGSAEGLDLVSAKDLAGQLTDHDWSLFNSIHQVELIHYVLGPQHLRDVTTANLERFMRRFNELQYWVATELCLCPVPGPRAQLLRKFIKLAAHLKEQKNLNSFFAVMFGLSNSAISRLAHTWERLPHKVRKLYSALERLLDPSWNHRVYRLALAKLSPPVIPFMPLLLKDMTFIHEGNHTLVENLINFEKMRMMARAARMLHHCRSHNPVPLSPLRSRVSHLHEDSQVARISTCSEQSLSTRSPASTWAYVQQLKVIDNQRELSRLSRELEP

Activity change, negative = inhibition, inactive:
Cc1ccc2c(c1)CN(CCNC(=O)C(C)Oc1ccccc1)CC(C)O2 (centres undefined) 2.58%
Cn1cccc1C(=O)N1CCC2(CC1)CCN(c1ncccn1)CC2 14.8%
O=C(NC1CCCC1)c1cn(C2CCN(Cc3cccc4cccnc34)CC2)nn1 22.7%
CO/N=C(\C(=O)N[C@@H]1C(=O)N2C(C(=O)O)=C(C[N+]3(C)CCCC3)CS[C@H]12)c1csc(N)n1 12.6%
CCOC(=O)[C@H](CCc1ccccc1)N[C@@H](C)C(=O)N1CCC[C@H]1C(=O)O 29.3%
COC(=O)c1ccccc1-c1cc(C)cc2c1OC(CNC(=O)c1cnc(C)cn1)C2 (centres undefined) 1.45%
O=C1CC2(CCCC2)CC(=O)N1CCNCC1COc2ccccc2O1 (centres undefined) 24.9%
CCCCOc1cc(C[C@@H]2CNC(=O)N2)ccc1OC 4.97%
Cc1cc(Cn2cnc3c2C[C@@H](C(=O)O)N(C(=O)C(c2ccccc2)c2ccccc2)C3)ccc1N(C)C -1.62%
NC[C@@H]1O[C@H](c2ccccc2)Cc2c1ccc(O)c2O
Cc1nc2ccc(CN(C)c3ccc(C(=O)N[C@@H](CCC(=O)O)C(=O)O)s3)cc2c(=O)[nH]1
Cc1ccc(CN2CCC(C3(c4ccccn4)NC(=O)N(CC4CCCO4)C3=O)CC2)cc1C (centres undefined) 3.7%
CC(=O)C[C@H]1c2cc(F)ccc2S(=O)(=O)N1c1ccc(N(C)C)cc1 10.6%
CCCCCOc1ccc(C2SC(=O)NC2=O)cc1OCC (centres undefined) 33.7%
CNc1ncnc2c1ncn2[C@H]1C[C@H](OP(=O)(O)O)[C@H](COP(=O)(O)O)O1 3.15%
CC(C(=O)O)c1ccc(/C=C2\CCCCC2=O)cc1 (centres undefined) 45.8%
O=C(c1cccc(F)c1)N1CCC[C@@]2(CCN(c3cccc(-c4ccccc4)c3)C2)C1 11.6%
CC(=O)O[C@H]1C[C@H]2CC[C@@H]3[C@H]4C[C@@H]([N+]5(C)CCCCC5)[C@@H](OC(C)=O)[C@]4(C)CC[C@@H]3[C@@]2(C)C[C@@H]1[N+]1(C)CCCCC1 9.56%
Cc1ncc2c(c1CNC(=O)c1ccc3c(c1)OCO3)CCN(C(=O)c1cc3ccccc3o1)C2 15.9%
NCCS(=O)O
Cc1oc(-c2ccccc2NC(=O)C2CCC2)nc1CNC(=O)c1ccc(C#CC(C)(C)O)cc1 3.45%
O=C(O)CCC/C=C\C[C@@H]1CO[C@H](C(F)(F)F)O[C@@H]1c1ccccc1O -3.14%
COC(=O)c1ccc(CN2C[C@H](Sc3ccccn3)C[C@H]2C(=O)N(C)C)cc1 2.99%
CC[N+]1(CC(=O)c2ccc(Br)cc2)CCCCC1 2.16%
N#Cc1ccc(CN2CC3(CCN(C(=O)c4csnn4)CC3)C2)cc1 13.8%
COc1ccc(-c2cc(C(F)F)nn2-c2ccc(S(N)(=O)=O)cc2)cc1F 11.5%
COC(=O)c1ccccc1C(=O)N1CCc2c(cnc(C)c2CNC(=O)c2ccccc2F)C1 19%
COc1cc(-c2cnc3ccccc3c2)cc2c1OCCN(C(=O)CCn1nc(C)cc1C)C2 8.69%
CCCCCc1ccc(-c2cn(CN3C(=O)c4ccccc4C3=O)nn2)cc1 -2.37%
COc1ccc(CNc2cc(-c3ccccc3Cl)ncn2)c(OC)c1 -9.31%
Cn1cc(-c2nc3cnc(Oc4cccc(Cl)c4)nc3n(C3CC3)c2=O)c2ccccc21 11.6%
CN(C)c1ncc2nc(CCc3ccccc3)c(=O)n(CCC#N)c2n1 -4.32%
CC(Oc1ccccc1)C(=O)N[C@@H]1C(=O)N2[C@@H]1SC(C)(C)[C@@H]2C(=O)O (some centres undefined) -7.61% [at 75.8 µM]
CC(C)NC[C@H](O)c1ccc(O)c(O)c1
COc1cccc(CN2CCC3(CCC(CNC(=O)c4cc(C)nn4C)O3)CC2)c1OC (centres undefined) 24.8%
COc1ccc(N2C(=O)[C@@H]3C[C@H]2CN3Cc2cccn2-c2nccs2)cc1Cl 10.6%
CC(=O)O[C@](C)(CCC=C(C)C)C1CC=C(C)CC1 (some centres undefined) 17.9%
Cc1cc2c(c(-c3cnccn3)c1)OC(CNC(=O)c1cc(Cl)ccc1F)C2 (centres undefined) -4.59%
Cc1ncc2c(c1CNS(=O)(=O)c1cccs1)CCN(C(=O)/C=C/c1ccc(F)cc1F)C2 5.99%
Cc1cc(C(=O)NCc2nnc3n2CCN(Cc2ccc(C)c(C)c2)CC3)c(C)o1 12.4%
CC(=O)c1ccccc1C(=O)NCC1Cc2cccc(-c3cccnc3)c2O1 (centres undefined) 4.77%
O=C(c1cncs1)N(Cc1cc2cc3c(cc2nc1N1CCOCC1)CCC3)CC1CCCO1 (centres undefined) 6.36%
COc1ccc(C(=O)NCc2ccc(OCCN(C)C)cc2)cc1OC 8.43%
O=C(Nc1ncc([N+](=O)[O-])s1)c1cccs1 6.62%
CN1[C@@H]2CC[C@H]1CC(NC(=O)n1c(=O)[nH]c3ccccc31)C2 (some centres undefined) 36.4%
N[C@@H](C(=O)N[C@@H]1C(=O)N2C(C(=O)O)=C(Cl)CS[C@H]12)c1ccccc1 12.9%
Cc1ccc2c(c1)ncc[n+]2CC(=O)c1ccc(F)cc1 -22.4%
COc1ccc(CCC(=O)c2c(O)cc(OC3OC(CO)C(O)C(O)C3O[C@@H]3OC(C)C(O)C(O)C3O)cc2O)cc1O (some centres undefined) -2.88%
COc1cccc(Cn2c(=O)c(-c3ccccc3)nc3cnc(N4CCN(C)CC4)nc32)c1 5%
COc1cc(C[C@@H]2NCCc3cc(O)c(O)cc32)cc(OC)c1OC 35%
COc1ccc(NC(=O)[C@@H]2CC=C[C@@H]3CCN(C4CC4)C(=O)[C@@H]32)cc1 15.5%
COc1ccc(-n2c(CNC(=O)c3ccccc3C(F)(F)F)nnc2SC)cc1 4.49%
CN1CCN(c2ccnc(-c3cccc(NS(C)(=O)=O)c3)n2)CC1 23.8%
Cc1ccc2c(CC(=O)N3CCOc4ccc(CN5CCOCC5)cc4C3)cc(=O)oc2c1 8.61%
Cc1c(C(=O)NCCC2CCCN2C)cnn1-c1nccc(-c2ccccc2F)n1 (centres undefined) 21.4%
CN(C)c1ncc2nc(-c3cc(F)cc(F)c3)c(=O)n(C)c2n1 2.78%
CC(C)Cc1nc2cc(NS(=O)(=O)N(C)C)cc(C(=O)N3CCc4ccccc4C3)c2n1C 19.2%
COc1ccc(-n2c(=O)c(CCc3ccccc3)nc3cnc(N4CCN(C)CC4)nc32)cc1 4.57%
c1cc(NC2CC2)nc(-c2ccoc2)n1 7.33%
CC(C)CN(C[C@@H](OP(=O)(O)O)[C@H](Cc1ccccc1)NC(=O)O[C@H]1CCOC1)S(=O)(=O)c1ccc(N)cc1 -5.44%
C[C@@H](CC#N)CN1CC[C@H](C(C)(C)C)CCC1=O 0.636%
O=c1c(CCc2ccccc2)nc2cncnc2n1-c1ccccc1 -13.7%
COc1cccc2oc(-c3ccc(O)cc3)cc(=O)c12 14.9%
CC(C)(C)c1ccc(C(=O)C[N+]2(C)CCCc3ccccc32)cc1 (centres undefined) 8.76%
Cn1c([N+](=O)[O-])cnc1COC(N)=O 11.2%
NC(N)=O
Cc1cccc(C)c1NC(=O)CN1CCCCCC1 5.93%
O=C(CN1Cc2ccccc2OC(c2ccsc2)C1)NCC1OCCc2ccccc21 (centres undefined) -6.17%
Cc1ccc(SC[C@H](C)CN2CC[C@H](NC(=O)OCc3ccccc3)CCC2=O)cc1 0.485%
CN[C@H](CC(C)C)C(=O)N[C@H]1C(=O)N[C@@H](CC(N)=O)C(=O)N[C@@H]2C(=O)N[C@H]3C(=O)N[C@H](C(=O)N[C@H](C(=O)O)c4cc(O)cc(O)c4-c4cc3ccc4O)[C@H](O)c3ccc(c(Cl)c3)Oc3cc2cc(c3O[C@@H]2O[C@H](CO)[C@@H](O)[C@H](O)[C@@H]2O[C@H]2C[C@](C)(N)[C@H](O)[C@H](C)O2)Oc2ccc(cc2Cl)[C@H]1O -5.37% [at 75.8 µM]
COC(=O)c1cc(CNC(=O)c2cccc(C)c2)cc(NC(=O)c2ccncc2)c1 20%
CCCCCCCCCCCCCCCCCC(=O)OC(CC(=O)O)C[N+](C)(C)C (centres undefined) -7.32% [at 75.8 µM]
COC(=O)N1CCC2(CC1)CN(C(=O)Nc1cccc(C#N)c1)C2 33.2%
COc1ccccc1C(=O)N1CCCC(c2nc(SCCN3CCOCC3)ncc2C)C1 (centres undefined) 5.25%
Cn1cccc1C(=O)N1CCC2(CCCN(c3ccc(-c4ccccc4)cc3)C2)CC1 8.59%
CN(C)CCCO[C@@H]1[C@H]2OC(C)(C)O[C@H]2O[C@@H]1C(O)CO (some centres undefined) 16.6%
O=C1c2ccccc2S(=O)(=O)N1CCCCN1CCN(c2ncccn2)CC1 -14.6%
Cc1c(C(=O)NC2CCCCC2)sc2ncnc(NCCN(C)C)c12 13.7%
COc1ccc(O)c(CN2CCCN(c3nc(C)c4cc(C)c(C)cc4n3)CC2)c1 7.44%
Cc1ccc(S(=O)(=O)O)cc1C 11.8%
COc1ccc(-c2cn(Cc3cccc(OC)c3)nn2)cc1 -1.88%
CC(=O)OC1CCC2(C)C(=CC=C3C2CCC2(C)C3CCC2C(C)/C=C/C(C)C(C)C)C1(C)C (centres undefined) -7.1%
Clc1ccc(C(c2ccc(Cl)cc2)n2cc[n+](CC(OCc3ccc(Cl)cc3Cl)c3ccc(Cl)cc3Cl)c2)cc1 (centres undefined) -6.34% [at 75.8 µM]
Cc1nc2cnc(N(C)C)nc2n(C)c1=O 10.2%
CN(c1ccccc1)S(=O)(=O)c1ccccc1Br -2.13%
COc1ccc2[nH]cc(CCNc3ncncc3-c3ccccc3C)c2c1 -17.6%
COc1ccc(Oc2ncc3nc(C)c(=O)n(CCc4ccccc4)c3n2)cc1 11.8%
CCOC(=O)CCC(=O)O[C@H]1C(O[C@@H]2C(C)[C@H](O[C@H]3C[C@@](C)(OC)C(O)C(C)O3)C(C)C(=O)OC(CC)[C@@](C)(O)C(O)[C@H](C)C(=O)C(C)C[C@]2(C)O)OC(C)CC1N(C)C (some centres undefined) -2.91%
Cc1ccc2[nH]c(C(=O)NCc3nc(-c4cccc(NC(=O)c5cc(C)oc5C)c4)oc3C)cc2c1 9.71%
O=C(O)CC1CC(c2ccccc2)=NO1 (centres undefined) 4.74% [at 75.8 µM]
CC(N)C12CC3CC(CC(C3)C1)C2 (centres undefined) 13.7%
CCCCc1ccc2nc(NC(=O)OC)[nH]c2c1 8.5% [at 75.8 µM]
COc1ccc(CNC(=O)[C@@H]2CC=C[C@@H]3CCN(C4CC4)C(=O)[C@@H]32)cc1 4.53%
COc1cc2oc(=O)c3c4c(cc5ccc(c1CCN(C)C)c2c53)OCO4 23%
